# The list shows a part of the results.
# B1: Ficolin A (Rattus norvegicus), Q9WTS8 (protein)
# chain: MWWPMLWAFPVLLCLCSSQALGQESGACPDVKIVGLGAQDKVAVIQSCPSFPGPPGPKGEPGSPAGRGERGLQGSPGKMGPPGSKGEPGTMGPPGVKGEKGERGTASPLGQKELGDALCRRGPRSCKDLLTRGIFLTGWYTIYLPDCRPLTVLCDMDVDGGGWTVFQRRVDGSINFYRDWDSYKRGFGNLGTEFWLGNDYLHLLTANGNQELRVDLREFQGQTSFAKYSSFQVSGEQEKYKLTLGQFLEGTAGDSLTKHNNMAFSTHDQDNDTNGGKNCAALFHGAWWYHDCHQSNLNGRYLPGSHESYADGINWLSGRGHRYSYKVAEMKIRAS
# Columns and labels:
# Assay in all cases: glycan array binding signal (z-score within array); higher = stronger binding
# Settings in all cases: glycan notation: IUPAC condensed, linker removed
# Fuc(a1-2)Gal = molecular target: Fuc(a1-2)Gal
# Outline: (§1)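 The binding signal is a Z-score computed within each array. Data were drawn from 3228 arrays in the Consortium for Functional Glycomics database, restricted to those with a known protein sequence. Scores were averaged over arrays of the same protein sequence at different concentrations or buffers, and over linkers, and negative values can be taken as non-binding.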
# Fuc(a1-2)Gal(b1-3)GalNAc = molecular target: Fuc(a1-2)Gal(b1-3)GalNAc
# Outline: as §1
# [1] = molecular target: Fuc(a1-2)Gal(b1-3)GalNAc(b1-3)Gal
# Outline: as §1
# [2] = molecular target: Fuc(a1-2)Gal(b1-3)GalNAc(b1-3)Gal(a1-4)Gal(b1-4)Glc
# Outline: as §1
# [3] = molecular target: Fuc(a1-2)Gal(b1-3)GalNAc(b1-4)[Neu5Ac(a2-3)]Gal(b1-4)Glc
# Outline: as §1
# Fuc(a1-2)Gal(b1-3)GlcNAc = molecular target: Fuc(a1-2)Gal(b1-3)GlcNAc
# Outline: as §1
# [4] = molecular target: Fuc(a1-2)Gal(b1-3)GlcNAc(b1-3)Gal(b1-4)Glc
# Outline: as §1
# [5] = molecular target: Fuc(a1-2)Gal(b1-3)[Fuc(a1-4)]GlcNAc
# Outline: as §1
# Fuc(a1-2)Gal(b1-4)Glc = molecular target: Fuc(a1-2)Gal(b1-4)Glc
# Outline: as §1
# Fuc(a1-2)Gal(b1-4)Glc6S = molecular target: Fuc(a1-2)Gal(b1-4)Glc6S
# Outline: as §1
# Fuc(a1-2)Gal(b1-4)GlcNAc = molecular target: Fuc(a1-2)Gal(b1-4)GlcNAc
# Outline: as §1
# [6] = molecular target: Fuc(a1-2)Gal(b1-4)GlcNAc(b1-3)Gal(b1-4)GlcNAc
# Outline: as §1
# [7] = molecular target: Fuc(a1-2)Gal(b1-4)GlcNAc(b1-3)Gal(b1-4)GlcNAc(b1-3)Gal(b1-4)GlcNAc
# Outline: as §1
# [8] = molecular target: Fuc(a1-2)Gal(b1-4)GlcNAc6S
# Outline: as §1
# [9] = molecular target: Fuc(a1-2)Gal(b1-4)[Fuc(a1-3)]GlcNAc
# Outline: as §1
# [10] = molecular target: Fuc(a1-2)Gal(b1-4)[Fuc(a1-3)]GlcNAc(b1-3)Gal(b1-4)[Fuc(a1-3)]GlcNAc
# Outline: as §1
# [11] = molecular target: Fuc(a1-2)Gal(b1-4)[Fuc(a1-3)]GlcNAc(b1-3)Gal(b1-4)[Fuc(a1-3)]GlcNAc(b1-3)Gal(b1-4)[Fuc(a1-3)]GlcNAc
# Outline: as §1
# Fuc(a1-2)Gal6S(b1-4)Glc = molecular target: Fuc(a1-2)Gal6S(b1-4)Glc
# Outline: as §1
# [12] = molecular target: Fuc(a1-2)Gal6S(b1-4)Glc6S
# Outline: as §1
# [13] = molecular target: Fuc(a1-2)Gal6S(b1-4)GlcNAc
# Outline: as §1
# Fuc(a1-2)[Gal(a1-3)]Gal = molecular target: Fuc(a1-2)[Gal(a1-3)]Gal
# Outline: as §1
# [14] = molecular target: Fuc(a1-2)[Gal(a1-3)]Gal(b1-3)GlcNAc
# Outline: as §1
# [15] = molecular target: Fuc(a1-2)[Gal(a1-3)]Gal(b1-4)Glc
# Outline: as §1
# [16] = molecular target: Fuc(a1-2)[Gal(a1-3)]Gal(b1-4)GlcNAc
# Outline: as §1
# [17] = molecular target: Fuc(a1-2)[Gal(a1-3)]Gal(b1-4)[Fuc(a1-3)]GlcNAc
# Outline: as §1
# [18] = molecular target: Fuc(a1-2)[Gal(a1-4)]Gal(b1-4)GlcNAc
# Outline: as §1
# [19] = molecular target: Fuc(a1-2)[GalNAc(a1-3)]Gal
# Outline: as §1
# [20] = molecular target: Fuc(a1-2)[GalNAc(a1-3)]Gal(b1-3)GlcNAc
# Outline: as §1
# [21] = molecular target: Fuc(a1-2)[GalNAc(a1-3)]Gal(b1-4)Glc
# Outline: as §1
# [22] = molecular target: Fuc(a1-2)[GalNAc(a1-3)]Gal(b1-4)GlcNAc
# Outline: as §1
# [23] = molecular target: Fuc(a1-2)[GalNAc(a1-3)]Gal(b1-4)[Fuc(a1-3)]GlcNAc
# Outline: as §1
# [24] = molecular target: Fuc(a1-2)[GalNAc(a1-4)]Gal(b1-4)GlcNAc
# Outline: as §1
# [25] = molecular target: Fuc(a1-2)[GalNAc(b1-3)]Gal
# Outline: as §1
# Fuc(a1-3)GlcNAc = molecular target: Fuc(a1-3)GlcNAc
# Outline: as §1
# [26] = molecular target: Fuc(a1-3)[Gal(b1-4)]Glc6S
# Outline: as §1
# [27] = molecular target: Fuc(a1-3)[Gal(b1-4)]GlcNAc
# Outline: as §1
# [28] = molecular target: Fuc(a1-3)[Gal(b1-4)]GlcNAc(b1-2)Man(a1-3)[Fuc(a1-3)[Gal(b1-4)]GlcNAc(b1-2)Man(a1-6)]Man(b1-4)GlcNAc(b1-4)GlcNAc
# Outline: as §1
# [29] = molecular target: Fuc(a1-3)[Gal(b1-4)]GlcNAc(b1-2)Man(a1-6)[Gal(b1-4)GlcNAc(b1-2)Man(a1-3)]Man(b1-4)GlcNAc(b1-4)GlcNAc
# Outline: as §1
# [30] = molecular target: Fuc(a1-3)[Gal(b1-4)]GlcNAc(b1-3)Gal(b1-3)[Fuc(a1-4)]GlcNAc
# Outline: as §1
# [31] = molecular target: Fuc(a1-3)[Gal(b1-4)]GlcNAc(b1-4)Gal(b1-4)[Fuc(a1-3)]GlcNAc
# Outline: as §1
# [32] = molecular target: Fuc(a1-3)[Gal(b1-4)]GlcNAc(b1-4)Gal(b1-4)[Fuc(a1-3)]GlcNAc(b1-4)Gal(b1-4)[Fuc(a1-3)]GlcNAc
# Outline: as §1
# [33] = molecular target: Fuc(a1-3)[Gal(b1-4)]GlcNAc6S
# Outline: as §1
# [34] = molecular target: Fuc(a1-3)[Gal3S(b1-4)]Glc6S
# Outline: as §1
# [35] = molecular target: Fuc(a1-3)[Gal3S(b1-4)]GlcNAc
# Outline: as §1
# [36] = molecular target: Fuc(a1-3)[Gal3S(b1-4)]GlcNAc6S
# Outline: as §1
binder,measurement,setting,value
B1,glycan array binding signal (z-score),Fuc(a1-2)Gal,-0.026
same,glycan array binding signal (z-score),Fuc(a1-2)Gal(b1-3)GalNAc,-0.108
same,glycan array binding signal (z-score),[1],-0.073
same,glycan array binding signal (z-score),[2],-0.033
same,glycan array binding signal (z-score),[3],-0.091
same,glycan array binding signal (z-score),Fuc(a1-2)Gal(b1-3)GlcNAc,-0.07
same,glycan array binding signal (z-score),[4],-0.053
same,glycan array binding signal (z-score),[5],-0.046
same,glycan array binding signal (z-score),Fuc(a1-2)Gal(b1-4)Glc,-0.102
same,glycan array binding signal (z-score),Fuc(a1-2)Gal(b1-4)Glc6S,-0.084
same,glycan array binding signal (z-score),Fuc(a1-2)Gal(b1-4)GlcNAc,0.062
same,glycan array binding signal (z-score),[6],-0.032
same,glycan array binding signal (z-score),[7],-0.051
same,glycan array binding signal (z-score),[8],-0.062
same,glycan array binding signal (z-score),[9],-0.084
same,glycan array binding signal (z-score),[10],-0.072
same,glycan array binding signal (z-score),[11],-0.064
same,glycan array binding signal (z-score),Fuc(a1-2)Gal6S(b1-4)Glc,-0.114
same,glycan array binding signal (z-score),[12],-0.137
same,glycan array binding signal (z-score),[13],-0.093
same,glycan array binding signal (z-score),Fuc(a1-2)[Gal(a1-3)]Gal,-0.072
same,glycan array binding signal (z-score),[14],-0.095
same,glycan array binding signal (z-score),[15],-0.122
same,glycan array binding signal (z-score),[16],-0.086
same,glycan array binding signal (z-score),[17],-0.084
same,glycan array binding signal (z-score),[18],-0.116
same,glycan array binding signal (z-score),[19],-0.035
same,glycan array binding signal (z-score),[20],-0.1
same,glycan array binding signal (z-score),[21],-0.09
same,glycan array binding signal (z-score),[22],-0.02
same,glycan array binding signal (z-score),[23],0.084
same,glycan array binding signal (z-score),[24],-0.068
same,glycan array binding signal (z-score),[25],-0.032
same,glycan array binding signal (z-score),Fuc(a1-3)GlcNAc,-0.111
same,glycan array binding signal (z-score),[26],-0.108
same,glycan array binding signal (z-score),[27],-0.087
same,glycan array binding signal (z-score),[28],-0.099
same,glycan array binding signal (z-score),[29],-0.091
same,glycan array binding signal (z-score),[30],-0.092
same,glycan array binding signal (z-score),[31],-0.105
same,glycan array binding signal (z-score),[32],-0.05
same,glycan array binding signal (z-score),[33],-0.043
same,glycan array binding signal (z-score),[34],-0.093
same,glycan array binding signal (z-score),[35],-0.043
same,glycan array binding signal (z-score),[36],-0.107
